{"source": "patent US6660835B1", "about": "“Lead substances and their use as therapeutics” (priority 1998, dated 2003)", "tested_on": "agr system of S. aureus", "details": "S. aureus Newman; 0.05 to 1 μM; after 8 h of growth", "data": [{"substance": "SVc[CASYF]: S. epidermidis pheromone lacking the original aspartate residue at the N-terminus (SVXASYF; thiolactone cyclisation; VARIANT (3) C-terminal cyclyzed through thioester linkage to cystine residue 3; listed as Staphylococcus epidermidis)", "values": [{"measurement": "suppression of delta-toxin production", "result": "suppress the synthesis of delta-toxin"}]}]}
